PubChem BioAssay AID1347417 (National Center for Advancing Translational Sciences (NCATS), 2020)
Among all 120,000 compounds or so, about 5,300 (4.4%) were called active. This list was built around the results that the source calls inconclusive (neither active nor inactive); the mix of calls is not that of the screen. Calls come from the whole dose curve; as a rule, active = well fitted inhibition curve with a large enough effect; inconclusive = small, poorly fitted or top-dose-only effect; inactive = no such curve, though single readings can be large or run the other way. Potencies of inconclusive entries are doubtful fits and often do not repeat.

experiment: qHTS Primary assay for Inhibitors of Plasmodium falciparum Dd2 growth in vitro; note: nearly all actives have a fitted effect of over 65% in size; conditions: P. falciparum Dd2 growth, SYBR Green, 72 h; series mostly up to 28.9 µM
Method in brief: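 Infected erythrocytes (Dd2, 0.3% parasitemia, 2.5% hematocrit final) are added to compound in RPMI-1640/Albumax II medium, grown 72 h at 37C in low oxygen, then lysed with saponin/Triton-X containing SYBR Green and read by fluorescence.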
Potency is the fitted concentration of half-maximal effect; tags give direction and shape of the fitted curve.

| SMILES | Potency |
| --- | --- |
| COc1cc(NC(=O)Cc2noc3ccccc23)cc(OC)c1OC | inconclusive: 8.91 µM [inhibitor, single point] |
| Cc1cccc(CN2CCC3(CC2)CC2C(=O)NCCN2C3)c1 (stereo not drawn) | inconclusive: 3.98 µM [inhibitor, single point] |
| COc1ccccc1CN(Cc1ccccc1C)C(=O)[C@H]1CCC[C@H](O)C1 | inactive |
| O=C1NCCCCCCN(C(=O)Nc2ccccc2)[C@H]2C[C@H](C(=O)N3CCc4ccccc4C3)C[C@@H]12 | inconclusive: 2.24 µM [inhibitor, full curve, poor fit] |
| COc1ccccc1/C=C/C(=O)Nc1nc2n(n1)C(c1ccc(F)cc1)C=C(c1ccccc1)N2 (stereo not drawn) | active: 10 µM |
| Cc1ccc(OCCn2c(C3CC(=O)N(Cc4ccc(F)cc4)C3)nc3ccccc32)c(C)c1 (stereo not drawn) | inconclusive: 17.8 µM [inhibitor, single point] |
| CCOc1cccc(CNC(=O)c2cc3c(N4CCCC4)nc(C)cn3n2)c1 | inconclusive: 3.55 µM [inhibitor, partial curve, poor fit] |
| Clc1ccc(C2Cn3nnc(-c4noc(C5CCC5)n4)c3CO2)cc1 (stereo not drawn) | inactive |
| CO[C@H]1[C@H](NC(=O)c2cn3ccsc3n2)c2ccccc2C12CCNCC2 | inconclusive: 3.16 µM [inhibitor, single point] |
| Cc1ccccc1-c1nn(-c2ccc(F)cc2F)cc1CN1CCC[C@@H]1C(N)=O | inactive |
| O=C1CC2(CCN([S+](=O)([O-])c3ccccc3)CC2)Oc2ccccc2N1 | inactive |
| COc1ccc(CN2CC3(CCN(C(=O)Nc4cccc(C(F)(F)F)c4)CC3)C2=O)cc1 | inconclusive: 17.8 µM [inhibitor, single point] |
| CCOc1ccc(C(=O)N2CCN(c3cc(-c4ccccc4)[nH]n3)CC2)cc1OCC | inconclusive: 8.91 µM [inhibitor, partial curve] |
| Cc1cn2nc(C(=O)NCc3cc(F)cc(F)c3)cc2c(=O)[nH]1 | inactive |
| Oc1ccc(-c2nc3ccc(Cl)cn3c2Nc2ccc(Cl)cc2)cc1 | inconclusive: 12.6 µM [inhibitor, single point] |
| CCc1cccc(NC(=O)CN2C(=O)NC(c3ccc(C)cc3)C3=C2COC3=O)c1 (stereo not drawn) | inactive |
| Cc1cc(C2CC(C(=O)NCc3ccco3)CN(C(=O)NC(C)C)C2)ccc1F (stereo not drawn) | inactive |
| O=C(NC[C@H]1Cn2c(-c3ccccc3)cnc2CO1)C1CCCC1 | inconclusive: 31.6 µM [inhibitor, single point] |
| CSc1cccc(NC(=O)c2cc3c(COC(C)=O)cnc(C)c3oc2=O)c1 | inactive |
| CC(=O)c1cccc(NC(=O)CSc2ncc3c(n2)-c2cc(Cl)ccc2N(Cc2ccccc2)S3(=O)=O)c1 | inconclusive: 17.8 µM [inhibitor, single point] |
| COCCOc1ccc(-c2noc([C@@H]3CCCN3Cc3cccnc3)n2)cn1 | inconclusive: 7.08 µM [inhibitor, full curve, poor fit] |
| COCCNC(=O)c1ccc(CC2CCN(C(=O)Cc3ccccc3)CC2)cc1 | inconclusive: 17.8 µM [inhibitor, single point] |

| SMILES | Potency |
| --- | --- |
| CN1CCN(C(=O)c2ccc3c(c2)N(Cc2ccc(C(F)(F)F)cc2)C(=O)c2ccccc2S3)CC1 | active: 0.398 µM |
| COc1ccc(OC)c(C2C(C(=O)Nc3ccc(C)cc3)=C(C)Nc3nnnn32)c1 (stereo not drawn) | inconclusive: 10 µM [inhibitor, single point] |
| CN1C(=O)CC(C(=O)O)C12CCN(C(=O)Nc1ccccc1)CC2 (stereo not drawn) | inactive |
| CCCS(=O)(=O)N1CCC(N2CC(OCC3CC3)C23CCOCC3)CC1 (stereo not drawn) | inactive |
| O=C(NCC1CC1)c1cccc(OC2CN(Cc3ccc(F)cc3F)C2)c1 | inconclusive: 5.62 µM [inhibitor, partial curve, poor fit] |
| COCc1nc2nc(-c3ccccc3)c(Nc3ccc(F)c(OC)c3)cc2n1C | inactive |
| CCOC(=O)c1sc2ncn(CC(=O)Nc3ccc(OC)c(Cl)c3)c(=O)c2c1C | inactive |
| COCCNC(=O)[C@@H]1C[C@H](Oc2cccnc2)CN1C(=O)c1cnccc1C | inactive |
| Cc1ccccc1Cn1c2ccccc2c2cnn(CC(=O)NC3CCCCCC3)c(=O)c21 | inactive |
| Cn1cc(CN2C[C@@H](CO)[C@H](NC(=O)C3CCC3)C2)c2ccccc21 | inconclusive: 4.47 µM [inhibitor, partial curve] |
| O=C(CSc1nc2ccccc2n1Cc1cccc(F)c1)NCc1ccccc1 | inconclusive: 11.2 µM [inhibitor, single point] |
| O=C(CCC[C@H]1NC[C@@H]2C[C@H]1CN(Cc1ccccc1)C2)NCCc1ccncc1 | inconclusive: 20 µM [inhibitor, single point] |
| O=C(Nc1ccc([C@@H](O)[C@H]2COCC(=O)N2Cc2cccnc2)cc1)c1ccccc1 | inconclusive: 31.6 µM [inhibitor, partial curve, poor fit] |
| O=C1NC2(CCN(S(=O)(=O)c3cccc(C(F)(F)F)c3)C2)N=C1c1ccccn1 (stereo not drawn) | inactive |
| CC1CCCCN1c1ccc(C(N)=O)cc1NC(=O)c1cccc(-n2cnnc2)c1 (stereo not drawn) | inconclusive: 10 µM [inhibitor, partial curve, poor fit] |
| COc1ccc(CCNC(=O)CSc2cn(CCNC(=O)c3c(F)cccc3F)c3ccccc23)cc1OC | inconclusive: 10 µM [inhibitor, single point] |
| Cc1ccc([C@@H]2CN(C(=O)c3c(-c4ccccc4)noc3C)C[C@H]2N(C)C)cc1 | inconclusive: 10 µM [inhibitor, single point] |
| Cc1ccc(-n2ncc(C(=O)NCc3ccc4c(c3)OCO4)c2C2CCN(C(=O)OC(C)(C)C)CC2)c(C)c1 | inconclusive: 10 µM [inhibitor, single point] |
| COc1ccc(-c2cc(N3CCC(NC(=O)c4cc(F)ccc4Cl)C3)n[nH]2)cc1 (stereo not drawn) | inactive |
| O=C1CCCCN1CCCC(=O)N1CCOC(CC2CCCCC2)C1 (stereo not drawn) | inactive |
| Cc1ccc2c(=O)cc(C(=O)N(Cc3ccc(C(C)(C)C)cc3)C3CCS(=O)(=O)C3)oc2c1 (stereo not drawn) | inconclusive: 15.8 µM [inhibitor, single point] |
